Sequences and labels used below:
B1: tRNA (parent)
chain: CUCUCGGUAGCCAAGUUGGUUUAAGGCGCAAGACUUUAAUUUAUCACUACGAAAUCUUGAGAUCGGGCGUUCGACUCGCCCCCGGGAGAUUUUUUCCUCGAGCAA

Variants at the floor of the assay are shown more often than the library holds them. Bounds are passed on as bounds.

Consider 27 variants from the RNAGym collection of RNA variant scans (doi:10.1101/gad.245936.114).

In the series the parent is B1. In words: nonsense suppression (GFP-seq) (ratio to wild type); higher = more function; SUP4oc tRNA, yeast GFP reporter sort-seq. An outline of the steps: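 Raffinose/galactose medium with 80 mg/L adenine was used to grow yeast carrying genome-integrated tRNA variants (~3% random-mutation library), RFP, and a galactose-driven GFP ochre reporter. Cells went into GFP/RFP bins, which were Illumina-sequenced, and variants with ≥100 reads and ≥30 cells were scored. Nonsense suppression (GFPSEQ) is the per-bin median GFP/RFP weighted by estimated cell share and expressed relative to the unmutated parent tRNA.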
For the variant GACUCGGUAGCCAAGUUUGUUUAAGGCGCAAGACUUUAAUUUAUCACUACGAAAUCUUGAGAUCGGGCGUUCGACUCGCCCCCGGGAGAUUUUUUCCUCGAGCAA [C1G U2A G18U], the nonsense suppression was at most 0.026.

In the case of CUCUCGGUAGCCAAGUUGGAUUAAGGCGCAAGACUUUAAUUUAUCACUACGAAAACUUGAGAUCGGGCGUACGACUCGCCCCCGGGAGAUUUUUUCCUCGAGCAA [U20A U55A U71A], the nonsense suppression is at most 0.026. Under CUCUCGGUAGCCAAGUUGGUUUAAGGCGCAAGACUUUAAUUUAUCACUACGAAAUCUUGAGAUCAGGCGUUCCACUCGCCCCCGGGAGAUUUUUUCCUCGAGCAA [G65A G73C] stands at most 0.026. In the case of CUCUCGGUAGCCAAGGUGGUUUAAGGCCCAAGACUUUAAUUUAUCACUACGAAAUCUUGAGAUCGGGCGUUAGACUCGCCCCUGGGAGAUUUUUUCCUCGAGCAA [U16G G28C C72A C83U] it was at most 0.026; in that of CUCUCGGUAGCAAAGUUGGGUUAAGGCGCAGGACUUUAAUUUAUCACUACGAAACCUUGAGAUCGGGCGUUCGACUCGCCCCCGGGAGAUUUUUUCCUCGAGCAA [C12A U20G A31G U55C], at most 0.026. In the case of CUCCCGGUAGCCAAGUUGGUUUAAUGCGCAAGACUUUAAUUUAUCACUACGAAAUCUUGAGAUGGGCCGUUCGACUCGCCCCCGGGAGAUUUUUUCCUCGAGCAA [U4C G25U C64G G67C] it was at most 0.026; in that of CUCUCGGUAGCCAAGUUGGUUUUAGGCGCAAGACUUUAAUUUAUCACUACGAAAUCUUGAGAUCGGGCGUUCCACUUGCCCCCGGGAGAUUUUUUCCUCGAGCAA [A23U G73C C77U], at most 0.026; in that of CUCUCGGUAGCCAAGUUGGUUUAAGGCGCAAGACCUUAAUUUAUCACUACGAAAUCCUGAGAUCGGGCGUUCGACUCGCCCCCGGGAGAUUUUUUCCUCGAGCAA [U35C U57C], at most 0.026. Consider CUCUCGGUAGCCAAGUUGGUUUAAGGGGCAAGACUUUAAUUUAUCACUACGAAACCUUGCGAUCGGGCGUUCGACGCGCCCCCCGGAGAUUUUUUCCUCGAGCAA [C27G U55C A60C U76G G84C], for which the nonsense suppression is at most 0.026. In the case of AUCUCGGUAGCCAAGUUGGUUUAAGGCGCAAGACUUUAAUUUAUCACUACGAAUUCUUGAGAUCGGGCGUUCGACUCGCCCCGGGGAGAUUUUUUCCUCGAGCAA [C1A A54U C83G] it was at most 0.026; in that of CUCUCGGUAGUCAAGUUGGUUUAAGGCGCAAGACUUUAAUUUAUCACUACGAAAUCUUGAGAUCGGGCGUUCGACCCGCCCCCGGAAGAUUUUUUCCUCGAGCAA [C11U U76C G86A], at most 0.026; in that of CUCUCGGUAGCCAAGUUGGUUUAAGGCGUAAGACUUUAAUUUAUCACUACGAAAUCUUGAGAUCGGGCGUUCGACUCGCCCCAGGGAGAUUUUUUCCUCGAGCAA [C29U C83A], at most 0.026. Under CUCGCGUUAGCCAAGUUGGUUUAAGGCGCAAGACUUUAAUUUAUCACUACGAAAUCUUGAGAUCGGGCGUUCGACUCGCGCCCGGGAGAUUUUUUCCUCGAGCAA [U4G G7U C80G] stands at most 0.026; under CUCUCGGUACCCAAGUUGGUUUAAGGCGCAAGACUUUAAUUUAUCACUACGAAAUCAUGAGAUCGGGCGUUCGACUCGCCCCCGGGAGAUUUUUUCCUCGAGCAA [G10C U57A], at most 0.026. In the case of CUCUCGGUAGCCAAGUUGGUUUUAGGCGCAAGACUUUAAUUUAUCACUACGAAAUCUUGAGAUCGGGCGUCCGACUCGCCCCCGGGAGAUUUUUUCCUCGAGCAA [A23U U71C] it was at most 0.026; in that of CUCUCGGUAGCCAAGUUGGUUUAAGGCGCAAGACUUUAAUUUAUCACUACGAAACCUUGAAAUCGGGCGUUCUACUCGCCGCCGGGAGAUUUUUUCCUCGAGCAA [U55C G61A G73U C81G], at most 0.026; in that of CUCUCGGUAGCCAAGUUGGUUUAAGGCGCAAGACUUUAAUUUAUCACUACGAAAUCUUGAGAUCGGGCGUUCGGCUCGCUCCCGGGAGAUUUUUUCCUCGAGCAA [A74G C80U], at most 0.026.

In the case of CUCUGGGUAGCCAAGUUGGUUUAAGGCGCAAGACUUUAAUUUAUCACUACGAAAUCUUGAGAUCGGGCGUCCGACUCGCCCCCGGGAGAUUUUUUCCUCGAGCAA [C5G U71C], the nonsense suppression was at most 0.026.

Consider CUCUCGGUAGCUAAGUUGGUUUAAGGCGCAACACUUUAAUUUAUCACUACGAAAUCUUGAGAUCGGGCGUUCGACUCGCCCCCGGGAGAUUUUUUCCUCGAGCAA [C12U G32C], for which the nonsense suppression was at most 0.026.

For CUCUCGGUGGCCAAGUUGGUUUAAGGCGCAAGACUUUAAUUUAUCACUACGAAAUCUUGAUAUCGGGCGUCCGACUCGCCCCCGGGAGAUUUUUUCCUCGAGCAA [A9G G61U U71C], the nonsense suppression is at most 0.026. In the case of CUCUCGUUUGCCAAGUUGGUUUAAGGCGCAAGACUUUAAUUUAUCACUACGAAAUCUUGAGAUCGGGCGUUCGACUCACCCCCGGGAGAUUUUUUCCUCGAGCAA [G7U A9U G78A] it was at most 0.026; in that of CUCUCGGGAGCCAAGUUGGUUUAAGGCGGAAGACUUUAAUUUAUCACUACGAAAUCUUGAGAUCGGGCGUUCGACUCGCCCCCGGGAGAUUUUUUCCUCGAGCAA [U8G C29G], at most 0.026. CUCUCGGCAGCCAAGUUGGUUUAAGGCGCAAGACUUUAAUUUAUCACUACGAAAUCUUGAGAUAGGGCGUUCGAAUCGCCCCCGGGAGAUUUUUUCCUCGAGCAA [U8C C64A C75A]: the nonsense suppression is at most 0.026. As for CUCUCGGAAGCCAAGUUGGGUUAAGGCGCAAGACUUUAAUUUAUCACUACGAAAUCUUGAGCUCGGGCGUUAGACUCGACCCCGGGAGAUUUUUUCCUCGAGCAA [U8A U20G A62C C72A C79A], the nonsense suppression was at most 0.026. In the case of CUCUCGGUAGCCAGGUUGGUUUAAGGCGCAAUACUUUAAUUUAUCACUACGAAAUCUUGAGAUCGGGCGUUCGAGUCGCCCGCGGGAGAUUUUUUCCUCGAGCAA [A14G G32U C75G C82G] it was at most 0.026; in that of CUCUCGGUAGCUAAGUUGGUUUAAGGCGUAAGACUUUAAUUUAUCACUACGAAAUCUUGAGAUCGGGCGUUCGACUCGCCCCCGGGAGAUUUUUUCCUCGAGCAA [C12U C29U], 0.206. As to CUCUCGGUAGCCAAGUUGGUUUAAGGCGCAAGACUUUAAUUUAUCACUACGAAAUCUUGAGAUCGGGCGUUGGAAUCGCCCCCAGGAGAUUUUUUCCUCGAGCAA [C72G C75A G84A], the nonsense suppression was at most 0.026.
